# Data from a collection of fitness landscapes (doi:10.1126/science.1257360).
# Some of the results follow.
# B1: PhoQ; a variant is named by its letters at X, in order, P23837 (parent)
# chain: MKKLLRLFFPLSLRVRFLLATAAVVLVLSLAYGMVALIGYSVSFDKTTFRLLRGESNLFYTLAKWENNKLHVELPENIDKQSPTMTLIYDENGQLLWAQRDVPWLMKMIQPDWLKSNGFHEIEADVNDTSLLLSGDHSIQQQLQEVREDDDDAEMTHSVAVNVYPATSRMPKLTIVVVDTIPVELKSSYMVWSWFIYVLSANLLLVIPLLWVAAWWSLRPIEALAKEVRELEEHNRELLNPATTRELTSLVRNLNRLLKSERERYDKYRTTLTDLTHSLKTPLXXLQXXLRSLRSEKMSVSDAEPVMLEQISRISQQIGYYLHRASMRGGTLLSRELHPVAPLLDNLTSALNKVYQRKGVNISLDISPEISFVGEQNDFVEVMGNVLDNACKYCLEFVEISARQTDEHLYIVVEDDGPGIPLSKREVIFDRGQRVDTLRPGQGVGLAVAREITEQYEGKIVAGESMLGGARMEVIFGRQHSAPKDE
# Variants of: B1
# Test: enrichment ratio after two sorts for PhoP signalling (ratio (wild type AVST 3.29)); higher = more functional
# Conditions: with PhoP (E. coli)
row,Variant,enrichment ratio
1,VRCH,≤ 0.25
2,VRDD,≤ 0.25
3,TVNH,9.25
4,QHAM,≤ 0.25
5,LNDD,≤ 0.25
6,CHLF,≤ 0.25
7,AEEV,2.19
8,SWYL,≤ 0.25
9,AELD,11.4
10,SHCG,16.6
11,DDGS,≤ 0.25
12,YHCR,≤ 0.25
13,MPSW,≤ 0.25
14,DHIV,≤ 0.25
15,IEMG,2.66
16,RWVQ,≤ 0.25
17,IKDS,≤ 0.25
18,DVRH,≤ 0.25
19,FLSH,≤ 0.25
20,TCYW,≤ 0.25
21,YYKV,≤ 0.25
22,RDGR,≤ 0.25
23,HDAP,≤ 0.25
24,NHPF,≤ 0.25

row,Variant,enrichment ratio
1,NQYP,≤ 0.25
2,ILSA,≤ 0.25
3,IIGR,≤ 0.25
4,GVSK,≤ 0.25
5,FKEP,≤ 0.25
6,IQAT,≤ 0.25
7,SAMI,8.6
8,LNTA,≤ 0.25
9,RQRQ,≤ 0.25
10,VDPW,≤ 0.25
11,DISW,≤ 0.25
12,VGRS,≤ 0.25
13,SNIP,≤ 0.25
14,YKKY,≤ 0.25
15,LDNP,≤ 0.25
16,MDMR,≤ 0.25
17,ASTV,12.1
18,YLTF,0.333
19,GYDG,≤ 0.25
20,SHRW,≤ 0.25
21,TNHS,≤ 0.25
22,PTHI,≤ 0.25
23,DDQQ,≤ 0.25
24,TEHW,≤ 0.25

row,Variant,enrichment ratio
1,QLVA,≤ 0.25
2,MEAL,8.16
3,YWFH,≤ 0.25
4,EIDS,≤ 0.25
5,MSKE,≤ 0.25
6,INFW,≤ 0.25
7,GFQM,≤ 0.25
8,FQWT,≤ 0.25
9,MQMN,≤ 0.25
10,TLKY,≤ 0.25
11,WGHF,≤ 0.25
12,HQIR,≤ 0.25
13,HHNR,≤ 0.25
14,TRMS,≤ 0.25
15,PETW,≤ 0.25
16,FVMW,≤ 0.25
17,HERS,≤ 0.25
18,GNNV,≤ 0.25
19,YMFM,≤ 0.25
20,CSEF,≤ 0.25
21,MDQP,≤ 0.25
22,DNYY,≤ 0.25
23,VPIH,≤ 0.25
24,WHCP,≤ 0.25

row,Variant,enrichment ratio
1,CVMF,≤ 0.25
2,GEAP,≤ 0.25
3,LILN,≤ 0.25
4,TMHH,2.05
5,IWVP,≤ 0.25
6,HMPN,≤ 0.25
7,AMYR,≤ 0.25
8,IQVA,≤ 0.25
9,NHHM,≤ 0.25
10,MKVS,≤ 0.25
11,MGMY,≤ 0.25
12,FPQP,≤ 0.25
13,IFEG,≤ 0.25
14,RGWG,3.27
15,TAAD,≤ 0.25
16,RVCG,≤ 0.25
17,QHVM,≤ 0.25
18,MCWH,2.69
19,VTAF,0.371
20,LYGY,≤ 0.25
21,HQKI,≤ 0.25
22,MALA,3.7
23,VVGS,≤ 0.25
24,PNHP,≤ 0.25

row,Variant,enrichment ratio
1,YVMG,≤ 0.25
2,LRSK,≤ 0.25
3,RLCV,≤ 0.25
4,HWRK,≤ 0.25
5,WGHP,≤ 0.25
6,KIHR,≤ 0.25
7,HWNS,≤ 0.25
8,VGDS,≤ 0.25
9,YCDF,≤ 0.25
10,SAQE,≤ 0.25
11,VAKD,≤ 0.25
12,MADN,≤ 0.25
13,IYIW,≤ 0.25
14,TDVA,≤ 0.25
15,SYDP,≤ 0.25
16,HEID,≤ 0.25
17,WQPH,≤ 0.25
18,YQCQ,≤ 0.25
19,CTSI,19.6
20,AADS,≤ 0.25
21,VPHI,≤ 0.25
22,HNKN,≤ 0.25
23,FANK,≤ 0.25
24,FIRA,1.05

row,Variant,enrichment ratio
1,LAQS,≤ 0.25
2,SRGS,≤ 0.25
3,QKSI,6.62
4,WYVM,≤ 0.25
5,IQEW,≤ 0.25
6,NYMA,≤ 0.25
7,LGGI,≤ 0.25
8,KTVL,≤ 0.25
9,RQRV,≤ 0.25
10,RNVA,≤ 0.25
11,QQLH,≤ 0.25
12,WEMR,≤ 0.25
13,EHKD,≤ 0.25
14,SLRY,≤ 0.25
15,QGGS,14.5
16,TCKR,≤ 0.25
17,SYLK,≤ 0.25
18,HHLV,≤ 0.25
19,STSF,10.3
20,ILYN,≤ 0.25
21,TGTG,9.33
22,DRGF,≤ 0.25
23,TVEG,≤ 0.25
24,VMCV,≤ 0.25

row,Variant,enrichment ratio
1,WALF,≤ 0.25
2,DYGH,≤ 0.25
3,LHTY,≤ 0.25
4,HSFM,≤ 0.25
5,IARQ,≤ 0.25
6,TQVV,4.23
7,RIGR,≤ 0.25
8,ERPL,≤ 0.25
9,YDCY,≤ 0.25
10,FGPQ,≤ 0.25
11,MSVP,≤ 0.25
12,VYKA,≤ 0.25
13,HECA,≤ 0.25
14,YAVP,≤ 0.25
15,MQFR,≤ 0.25
16,REPR,≤ 0.25
17,NCQK,≤ 0.25
18,KKPS,1.58
19,YNVQ,≤ 0.25
20,DWIW,≤ 0.25
21,YRLN,≤ 0.25
22,KVRR,≤ 0.25
23,HWME,≤ 0.25
24,LQAT,≤ 0.25

row,Variant,enrichment ratio
1,EPMD,≤ 0.25
2,IAVC,≤ 0.25
3,WKRM,≤ 0.25
4,IDPD,≤ 0.25
5,DKQI,≤ 0.25
6,YGTM,≤ 0.25
7,HDCQ,≤ 0.25
8,ICRK,≤ 0.25
9,MHTD,≤ 0.25
10,SNWN,≤ 0.25
11,VFYR,≤ 0.25
12,IIVN,≤ 0.25
13,LYAH,≤ 0.25
14,MFYP,1.9
15,VGER,≤ 0.25
16,YSIL,1.87
17,SSLC,15.2
18,QYAN,≤ 0.25
19,PNIT,≤ 0.25
20,VECQ,8.23
21,RAEI,≤ 0.25
22,TMPQ,≤ 0.25
23,HMVF,≤ 0.25
24,FQKV,≤ 0.25

row,Variant,enrichment ratio
1,FEKD,≤ 0.25
2,IHYW,≤ 0.25
3,PFGK,≤ 0.25
4,QGRI,≤ 0.25
5,EYLT,≤ 0.25
6,VDSN,≤ 0.25
7,ITEP,≤ 0.25
8,MMWE,≤ 0.25
9,GQTS,≤ 0.25
10,QFFL,≤ 0.25
11,DSEP,≤ 0.25
12,IVSL,≤ 0.25
13,TEYY,10.3
14,IRML,≤ 0.25
15,LIWY,≤ 0.25
16,IFPY,≤ 0.25
17,ILWI,≤ 0.25
18,PFRK,≤ 0.25
19,YFVK,≤ 0.25
20,MSFC,14.1
21,AFLW,≤ 0.25
22,VFVD,≤ 0.25
23,VMVN,≤ 0.25
24,ESWG,≤ 0.25

row,Variant,enrichment ratio
1,SALD,2.76
2,HDDL,≤ 0.25
3,VAWM,≤ 0.25
4,INCP,≤ 0.25
5,MIFM,15.8
6,VARW,≤ 0.25
7,YYPM,≤ 0.25
8,MSPA,≤ 0.25
9,APIS,≤ 0.25
10,MWNV,≤ 0.25
11,DWHM,≤ 0.25
12,ANPR,≤ 0.25
13,TSGI,12.8
14,LKAM,≤ 0.25
15,YDCA,≤ 0.25
16,SDCE,≤ 0.25
17,MHHG,≤ 0.25
18,ITMN,≤ 0.25
19,FRAD,≤ 0.25
20,PPVH,≤ 0.25
21,PCAT,≤ 0.25
22,EGPD,≤ 0.25
23,EQIT,≤ 0.25
24,DWHN,≤ 0.25

row,Variant,enrichment ratio
1,VDCT,≤ 0.25
2,MFTF,0.689
3,AGSR,≤ 0.25
4,PLGM,≤ 0.25
5,CPIL,≤ 0.25
6,IVKM,≤ 0.25
7,DAVF,≤ 0.25
8,QHYI,≤ 0.25
9,NIMK,≤ 0.25
10,KINK,≤ 0.25
11,RNHK,≤ 0.25
12,ELTI,≤ 0.25
13,GFMG,≤ 0.25
14,WMVS,≤ 0.25
15,TACK,11.6
16,YDIQ,≤ 0.25
17,MEKP,≤ 0.25
18,SYWP,≤ 0.25
19,MLPS,≤ 0.25
20,VQKE,≤ 0.25
21,MFSR,≤ 0.25
22,WMDD,≤ 0.25
23,YFQD,≤ 0.25
24,DPAC,≤ 0.25

row,Variant,enrichment ratio
1,VPFD,≤ 0.25
2,PKIP,≤ 0.25
3,FRLI,≤ 0.25
4,KARR,≤ 0.25
5,THMR,≤ 0.25
6,MRET,≤ 0.25
7,PYEC,≤ 0.25
8,QDCP,≤ 0.25
9,NTRA,≤ 0.25
10,IPNV,≤ 0.25
11,RSYN,≤ 0.25
12,KFRD,≤ 0.25
13,MTRG,≤ 0.25
14,EQVR,≤ 0.25
15,RTSL,≤ 0.25
16,SLFW,≤ 0.25
17,ACFG,≤ 0.25
18,SGLI,16.2
19,WPAH,≤ 0.25
20,PMHT,≤ 0.25
21,VPEA,≤ 0.25
22,DHIF,≤ 0.25
23,YGLK,≤ 0.25
24,SIVR,1.84

row,Variant,enrichment ratio
1,DQPN,≤ 0.25
2,VMIS,≤ 0.25
3,SLEL,≤ 0.25
4,VMVR,≤ 0.25
5,KNYP,≤ 0.25
6,GKEV,≤ 0.25
7,GVMC,≤ 0.25
8,RKAH,≤ 0.25
9,WHSG,≤ 0.25
10,SCPV,6.54
11,HFIH,≤ 0.25
12,SMIN,≤ 0.25
13,TRAC,≤ 0.25
14,QGLH,≤ 0.25
15,YSAQ,≤ 0.25
16,MSFP,≤ 0.25
17,SWYY,≤ 0.25
18,HWVM,≤ 0.25
